# Experimental data: PubChem BioAssay AID1508642 (National Center for Advancing Translational Sciences (NCATS), 2021)
# About 200 (0.47%) of roughly 43,000 compounds were called active. Roughly 12% stayed inconclusive and do not appear here. The call rests on the fitted dose curve; in most records, active means well fitted cell-killing curve with a large enough effect; inconclusive means small, poorly fitted or top-dose-only effect, or effect the other way; inactive means flat fitted curve, though single readings scatter. The list shows a part of the results.
# Test: Cell viability qHTS assay in S16 Pmp22-F2sN cells; further: nearly all actives have a fitted effect of over 65% in size
# Settings: S16 Pmp22-F2sN Schwann cells viability, CellTiter-Glo, 24 h; series mostly up to 57.5 µM; activity change, negative = cytotoxicity: at the top concentration
# Summary of the method: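 S16 Pmp22-F2sN Schwann cells (500-1,000/well) in phenol-red-free DMEM with 10% FBS received 23 nL compound by pin tool for 24 h at 37 °C. Viability was then read as CellTiter-Glo luminescence after 15 min at room temperature.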
# On the % scale 0 is the no-effect control and ±100 the full control effect.
row,SMILES,"activity change, negative = cytotoxicity"
1,CCCN(CCC)C(=O)Cn1c(=O)n(-c2ccc(CC)cc2)c(=O)c2c3c(sc21)CCC3,inactive: 11.2%
2,CCOC(=O)C1CCN(C(=O)c2ccc3c(=O)n4nc(Nc5ccccc5)sc4nc3c2)CC1,inactive: 4.17%
3,COc1ccc(NC(=O)C2(S(=O)(=O)c3ccc(C)cc3)CC2)c(OC)c1,inactive: 1.56%
4,O=C(Nc1ccccc1F)C(c1ccccc1)N1Cc2ccccc2C1=O (configuration not stated),inactive: -1.45%
5,O=C(CSc1nccn1Cc1ccc(F)cc1)NC1CCCC1,inactive: 6.75%
6,CCCOC(=O)c1ccc(NC(=O)C2CC(=O)N(c3ccc(C)cc3)C2)cc1 (configuration not stated),inactive: 21.4%
7,Cc1ccc(CN(C(=O)COc2cccc(Cl)c2)c2ccccn2)o1,inactive: 5.12%
8,CCOc1ccc(NC(c2ccc(Cl)cc2)c2nnc(-c3cccc(F)c3)o2)cc1 (configuration not stated),inactive: 13.7%
9,COc1cc(O)ccc1-c1nc2ccc(Br)cn2c1Nc1ccccc1C,inactive: 2.22%
10,CCOc1ccc(NC(=O)c2sc3nc4n(c(=O)c3c2C)CCCC4)cc1,inactive: -2.69%
11,Cc1cc(Cl)ccc1NC(=O)CS(=O)(=O)c1cccc2nsnc12,inactive: -1.88%
12,Cc1cccn2c(=O)c3cc(C(=O)NC(C)(C)C)n(C)c3nc12,inactive: 14.7%
13,CCOC(=O)C1CCN(c2nc3c(S(=O)(=O)c4ccc(CC)cc4)nnn3c3ccc(Cl)cc23)CC1,inactive: -3.52%
14,CC(=O)c1ccc(NC(=O)C2CCCN(S(=O)(=O)c3ccc(Br)s3)C2)cc1 (configuration not stated),inactive: -0.559%
15,CCc1ccc(NCc2cc3ccc(OC)cc3n(CC(=O)Nc3ccccc3OC)c2=O)cc1,inactive: 11.1%
16,COC(=O)c1sc2cccc(F)c2c1S(=O)(=O)NC(C)c1ccccc1 (configuration not stated),inactive: 0.201%
17,Cc1cccc(NC(=O)c2ccc(F)c(S(=O)(=O)NCc3ccc4c(c3)OCO4)c2)c1,inactive: -1.84%
18,Cc1ccn2c(Nc3ccc4c(c3)OCO4)c(-c3ccc(C)o3)nc2c1,inactive: -17.9%
19,Cc1cc(C)cc(NC(=O)CSc2oc(-c3cccs3)nc2S(=O)(=O)c2ccc(Br)cc2)c1,inactive: -14.4%
20,CCOc1ccc(N2CC(NC(=O)c3cc4ccccc4o3)CC2=O)cc1 (configuration not stated),inactive: 6.9%
21,CCCOC(=O)c1c(NC(=O)c2cc3nc(-c4ccc(OC)cc4)cc(C(F)(F)F)n3n2)sc2c1CCCC2,inactive: 5.53%
22,COc1cccc(NC(=O)CSc2c(C)cnc3c2c(=O)n(C)c(=O)n3C)c1,inactive: 0.237%
23,COc1cc(Cl)c(C)cc1NC(=O)c1nn(-c2ccc(C)cc2)c(=O)n(C)c1=O,inactive: 0.705%
24,Cc1ccc(CSc2nc3ccncc3n2Cc2nc(-c3ccc(Cl)cc3)oc2C)cc1,inactive: -19.2%
25,COc1ccccc1N1CCN(C(=O)c2cnn(C(C)(C)C)c2C2CCN(C(=O)OC(C)(C)C)CC2)CC1,inactive: -5.26%

row,SMILES,"activity change, negative = cytotoxicity"
1,CCOC(=O)c1ccc(NC(=O)C(=O)NCCc2ccc(OC)cc2)cc1,inactive: -2.81%
2,COc1ccc2oc(=O)c(C(=O)N3CCN(c4cc(Cl)ccc4Cl)CC3)cc2c1,inactive: 3.34%
3,Cc1ccc(C)c(NC(=O)Cn2c(-c3nonc3N)nc3ccccc32)c1,inactive: 5%
4,Cc1ccc(-c2nc(CCNC(=O)C(=O)Nc3ccc(F)cc3F)cs2)cc1,inactive: 13.5%
5,Cc1ccc(C(=O)Nc2cc3cc(Cl)ccc3oc2=O)cc1,inactive: -6.18%
6,CC(C)C(=O)Nc1c(C(=O)N2CCN(c3ccccc3F)CC2)oc2ccccc12,inactive: 0.39%
7,Fc1ccc(C(c2nnc(-c3ccccc3)o2)N2CCN(c3ccccc3)CC2)c(Cl)c1 (configuration not stated),inactive: 6.52%
8,Cc1ccc(-c2nc3sc(CCNC(=O)c4ccco4)c(C)n3n2)cc1,inactive: 0.743%
9,Cc1ccc2c(c1)N(CC(=O)NCCCN1CCCCC1)C(=O)c1cccnc1O2,inactive: 2.71%
10,COc1ccccc1CNC(=O)CCCN1C(=O)CCn2nc(-c3cn(C)c4ccccc34)cc21,inactive: -0.298%
11,COc1ccccc1NCc1nnc2n1CCCCC2,inactive: 0.729%
12,Cc1ccc(-c2nc(C(=O)Nc3cccc(C#N)c3)c3n2CCCCC3)cc1,inactive: -0.208%
13,Cc1cccc(C(=O)OCc2cc(=O)n3nc(C4CC4)sc3n2)c1,inactive: 25.9%
14,COc1ccc(-c2nc(SCC(=O)Nc3ccc4c(c3)OCO4)c(-c3ccc(F)cc3)[nH]2)cc1OC,inactive: -4.3%
15,CCOc1ccccc1NC(=O)CCc1nc(-c2cccc(C)c2)no1,inactive: 3.48%
16,O=C1c2ccccc2C(=O)C1(c1ccccc1)N1CCN(c2cccc(C(F)(F)F)c2)CC1,inactive: -0.349%
17,Cc1ccc(NC(=O)N2CCC(CN3CCCCCC3)CC2)c(Cl)c1,inactive: 24.9%
18,CC(C)c1ccc(N2C(=O)CSC23C(=O)N(Cc2ccccc2F)c2ccccc23)cc1 (configuration not stated),inactive: -2.28%
19,Cc1nc(-c2ccc(S(=O)(=O)Nc3ccc(OC(F)(F)F)cc3)cc2)co1,inactive: -3.44%
20,CCCNC(=O)c1c(NC(=O)c2ccccc2F)sc2c1CCCCC2,inactive: 5.62%
21,CCC(=O)N1CCc2cc(S(=O)(=O)NCCC(=O)NCc3ccc(OC)cc3)ccc21,inactive: -7.25%
22,COc1cccc(-n2c(=O)c3sccc3n(Cc3cc(=O)n4cc(Cl)ccc4n3)c2=O)c1,inactive: 8.21%
23,Cc1nc2nncn2c(Nc2ccc(F)cc2)c1C,inactive: -11.2%
24,Cc1cc2nc(-c3cccc(NC(=O)COc4ccc(C(C)C)cc4)c3)oc2cc1C,inactive: 14%
25,Cc1ccc(N(C)S(=O)(=O)c2c(-c3ccccc3)csc2C(=O)O)cc1,inactive: 6.8%

row,SMILES,"activity change, negative = cytotoxicity"
1,COc1ccc(N2CCN(C(=O)c3c(C)oc4nc(C)nc(N5CCCC5)c34)CC2)cc1,inactive: 3.35%
2,Cc1ccccc1-c1nnc(SCC(=O)N2CCCc3ccccc32)o1,inactive: 1.36%
3,COc1ccc(-c2nc(C)c(CCNC(=O)c3cccs3)s2)cc1,inactive: 6.44%
4,CCOc1ccc(NC(=O)c2ccc3c(c2)c(C)c(C)n3Cc2ccc(F)cc2)cc1,inactive: -16.7%
5,Cc1ccc(NC(=O)Cn2ncc3c4ccccc4n(Cc4ccccc4)c3c2=O)cc1Cl,inactive: 22.4%
6,Cc1ccc(C)c2sc(N3CCN(C(=O)c4ccco4)CC3)nc12,inactive: 9.47%
7,Cc1cn2c(=O)c(S(=O)(=O)NC(C)c3ccccc3)c(C)nc2s1 (configuration not stated),inactive: 11%
8,Cc1ccc(S(=O)(=O)c2nnn3c2nc(N2CCCCC2)c2sccc23)cc1,inactive: 9.05%
9,CCN(CC)S(=O)(=O)c1ccc(NC(=O)[C@H](CCSC)N2Cc3ccccc3C2=O)cc1,inactive: -9.42%
10,CCn1ccc2cc(S(=O)(=O)N3CCCN(C(=O)Nc4ccc(C)cc4)CC3)ccc21,inactive: -0.518%
11,NC(=O)Cn1c(=O)n(-c2ccc(F)c(Cl)c2)c(=O)c2sc3ccccc3c21,inactive: 5.77%
12,Cc1ccc(N2CCN(c3cc(C)nc4c(-c5ccc(Cl)cc5)c(C)nn34)CC2C)cc1 (configuration not stated),inactive: 3.78%
13,CCc1nc(SCc2cc(=O)c3cc(F)ccc3[nH]2)n[nH]1,inactive: 18.4%
14,Cc1cc(C)cc(N(C)S(=O)(=O)c2nnc(NC(=O)COc3ccc(Cl)cc3)s2)c1,inactive: -0.64%
15,CC(=O)c1cccc(NC(=O)CN2C(=O)CN(C)C(=O)c3ccccc32)c1,inactive: -0.816%
16,CCOc1ccc(Cn2c(CNS(=O)(=O)c3cccs3)nc3cccnc32)cc1,inactive: 0.0162%
17,Cc1cccc(Cn2c(-c3cccs3)nc3ccccc32)c1,inactive: 2.15%
18,Cc1ccccc1NC(=O)CCc1c(C)nc2c(c1C)c(=O)n(C)c(=O)n2C,inactive: 6.63%
19,CCc1ccc(OCC(=O)Nc2c(C(=O)c3ccccc3)oc3ccccc23)cc1,inactive: -1.53%
20,Cc1nc(-c2cccc(S(=O)(=O)N3CCC(C(=O)NCc4ccccc4)CC3)c2)no1,inactive: -13.2%
21,Cc1cc(=O)n2nc(N3CCC(C(=O)NCc4ccccc4Cl)CC3)sc2n1,inactive: 15.4%
22,COc1ccc(OC)c(S(=O)(=O)Nc2ccc3[nH]c(=O)[nH]c3c2)c1,inactive: -17.7%
23,Cc1cccc(CN2C(=O)c3ccccc3S(=O)(=O)c3ccc(C(=O)N4CCCC4)cc32)c1,inactive: -0.563%
24,COc1ccc(NS(=O)(=O)c2ccc3c(c2)oc(=O)n3C)cc1Cl,inactive: -16.6%
25,COc1cccc(NC(=O)c2nnn(Cc3cccc(C(F)(F)F)c3)c2N)c1,inactive: 0.0977%

row,SMILES,"activity change, negative = cytotoxicity"
1,Cc1ccc2nc(Cl)c3cc(C(=O)NC4CCCCC4)sc3c2c1,inactive: 3.82%
2,COc1ccc(OC)c(NC(=O)C(NS(=O)(=O)c2ccc3c(c2)CCCC(=O)N3)C(C)C)c1 (configuration not stated),inactive: -6.81%
3,COc1ccc(C(=O)Nc2nc3nc(C)c(Cl)c(=O)n3[nH]2)cc1,inactive: 9.31%
4,Cc1ccc(-c2cnc(NCc3c(F)cccc3Cl)n2C)cc1,inactive: -18.4%
5,CCOc1ccc(NC(=O)Cn2c(=O)c(CNc3ccc(OC)cc3)cc3ccc(OC)cc32)cc1,inactive: 9.38%
6,CCOC(=O)c1cc(S(=O)(=O)N2CCN(c3cc(Cl)ccc3C)CC2)[nH]n1,inactive: -2.17%
7,CN1CCc2nc3sc(C(=O)Nc4c(F)cccc4F)c(N)c3cc2C1,inactive: -0.579%
8,CCc1ccc(S(=O)(=O)N(C(C)=O)c2ccc3oc4c(c3c2)CCCC4)cc1,inactive: -27.5%
9,CCOc1ccc(C(=O)Nc2ccc3c(c2)N(C(C)=O)CCC3)cc1OCC,inactive: -26.5%
10,COc1ccc(NS(=O)(=O)c2ccc3c(c2)NC(=O)CCS3)c(OC)c1,inactive: 4.49%
11,CCOc1ccc(C2c3c(oc4cc(C)c(C)cc4c3=O)C(=O)N2c2ccccn2)cc1 (configuration not stated),inactive: 3.86%
12,CCC(C(=O)Nc1cc(C)ccc1OC)n1nnc(C(=O)OC)c1C(=O)OC (configuration not stated),inactive: -21.1%
13,COc1ccccc1N1CCN(S(=O)(=O)c2ccc(-n3cnnn3)cc2)CC1,inactive: -5.57%
14,CCOC(=O)N1CCc2c(sc3c2c(=O)n(-c2ccc(CC)cc2)c(=O)n3Cc2cccc(OC)c2)C1,inactive: 18.8%
15,CN(C)c1ccc(CN(Cc2ccco2)C(=O)c2ccc(F)cc2)cc1,inactive: 5.5%
16,COc1ccccc1CNC(=O)CCC(=O)N1Cc2ccccc2Oc2ncccc21,inactive: 2.45%
17,Cc1ccc(-n2nc3c(N4CCC(C(=O)N(C)Cc5ccccc5)CC4)nnc(C)c3c2C)cc1,inactive: -8%
18,Cc1ccc(C)c(S(=O)(=O)n2nc(C)c(S(=O)(=O)N3CCC(C)CC3)c2C)c1,inactive: 21.2%
19,CC(=O)Nc1ccc(S(=O)(=O)Nc2nc3n(n2)C(c2ccccc2)C=C(c2ccc(Cl)cc2)N3)cc1 (configuration not stated),inactive: 5.25%
20,COc1cc(Cl)c(C)cc1Nc1nnc(-n2nc(C)cc2C)c2ccccc12,inactive: 2.59%
21,COc1cccc(NC(=O)C2CCCN2S(=O)(=O)c2ccc3nc(-c4ccccc4)[nH]c3c2)c1 (configuration not stated),inactive: 19.2%
22,COc1ccc(OCc2nc(C#N)c(NCc3ccccc3Cl)o2)cc1,inactive: 19.5%
